Measured values from PubChem BioAssay (NCATS).
Values joined by “and” are separate entries in the source; they are usually repeats but may differ in a detail not shown here. Equal values may be shown once. Inconclusive results, whose numbers are uncertain, are shown with a selection of clear calls. For some of these results: Potencies beside an inconclusive call are fits to weak or partial responses and may not hold up. For some of these results: “Side channel” marks fits to a control or component signal instead of the main read-out. A structure can be active in one record and inactive in another. Active and inactive are the calls of the source. Unless noted, calls come from the whole dose curve; as a rule, active = well fitted curve in the direction sought with a large enough effect; inconclusive = small, poorly fitted or top-dose-only effect, or another doubt; inactive = no such curve, though single readings can be large; an effect the other way counts as inactive or inconclusive.

How the values were obtained:
[1] = Cellular Toxicity (caspase-3) HepG2 (AID 654); details: HepG2 caspase-3 activation, luminescence; note: potency is the fitted concentration of half-maximal effect
In short: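 Caspase 3/7 activation in HepG2 is measured as rising luminescence after a 16 hr treatment at 37 °C. Values are scaled between DMSO basal and 100 uM tamoxifen, and AC50 is fitted with the Hill equation.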

[2] = Cellular Toxicity (caspase-3) HUV-EC-C (AID 656)
In short: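 Concentration-dependent caspase 3/7 induction was assessed in HUV-EC-C cells exposed for 16 hours. Data scaled between DMSO and tamoxifen (100 uM) controls.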

[3] = Cellular Toxicity (caspase-3) H-4-II-E (AID 663); details: H-4-II-E rat hepatoma; Potency: caspase-3 activation; caspase-3 activation: at 92.2 µM (top of the series), scaled: DMSO 0%, 100 µM tamoxifen 100%;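 note: cells exposed to compound for 16 hr before readout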
In short: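 Caspase 3/7 activation measured in H-4-II-E cells in complete culture medium after 16 hr treatment at 37 °C, using luciferase-coupled substrate readout; AC50 values come from Hill-equation fits of normalized concentration-response data.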

[4] = Cellular Toxicity (caspase-3) Hek293 (AID 664); details: HEK293 caspase-3 activation, DMSO = 0%, 100 µM tamoxifen = 100%; at 92.2 µM (top of the series);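 note: cells exposed to compound for 16 h at 37 °C before readout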
In short: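 qHTS, HEK293 (human embryonic kidney), 16 h cpd exposure in complete medium. Caspase-3/7 activation = luminescence increase; normalized to DMSO/100 uM tamoxifen; Hill-fit AC50.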

[5] = Cellular Toxicity (caspase-3) N2a (AID 665); details: N2a cells, luminescence, normalized: DMSO 0%, 10 µM staurosporine 100%; at 92.2 µM (top of the series);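 note: compound exposure lasted 16 h at 37 °C before readout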
In short: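 Caspase-3/7 activation, measured as increased luminescence from aminoluciferin release, is quantified in mouse N2a cells exposed to compounds for 16 h. Values are normalized to DMSO and 10 uM staurosporine, with AC50 derived by Hill modelling.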

[6] = Cellular Toxicity (caspase-3) Renal Proximal Tubule (AID 667); details: renal proximal tubule cells; at 91.7 µM (top of the series) unless noted;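 note: cells exposed to compound for 16 hours at 37 °C before detection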
In short: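 Caspase-Glo 3/7 read-out, rat primary kidney proximal tubule cells. Compound exposure 16 h, 37 °C; detection after 1 h at RT. Activity scaled to DMSO and 10 uM staurosporine.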

[7] = Cellular Toxicity (caspase-3) Jurkat (AID 655); details: Jurkat caspase-3 activation, luminescence; caspase-3 activation: at 92.2 µM (top of the series), DMSO = 0%, tamoxifen = 100%;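 note: cells exposed to compound for 16 h at 37 °C before reading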; note: potency is the fitted concentration of half-maximal effect
In short: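 qHTS in human Jurkat T-cell leukemia line: 16 hr compound treatment at 37 °C, caspase-3/7 activity measured by Caspase-Glo luminescence. AC50 derived from Hill equation.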

[8] = Cellular Toxicity (caspase-3) BJ (AID 658); details: BJ fibroblasts, caspase-3 activation, luminescence; note: potency is the fitted concentration of half-maximal effect
In short: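 Plated BJ cells (1000/well) rested 5 hr, received compound for 16 hr at 37 °C, then Caspase-Glo 3/7 reagent for 1 hr at room temperature before luminescence reading.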

[9] = Cellular Toxicity (caspase-3) MRC-5 (AID 659); details: MRC-5 cells, caspase-3 activation, luminescence; note: potency is the fitted concentration of half-maximal effect
In short: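 Apoptosis readout in MRC-5 cells: luciferase light generated after caspase 3/7 cleaves a peptide-aminoluciferin substrate, measured post 16 hr compound incubation at 37 °C.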

[10] = Cellular Toxicity (caspase-3) SK-N-SH (AID 661); details: SK-N-SH caspase-3 activation, qHTS; caspase-3 activation: at 91.7 µM (top of the series), DMSO as zero, staurosporine as full
In short: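 Cells were seeded and incubated 5 hr at 37 °C, dosed with compound over a concentration range for 16 hr, then given Caspase-Glo 3/7 reagent for 1 hr at room temperature before luminescence reading.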

[11] = Cellular Toxicity (caspase-3) NIH 3T3 (AID 666); note: potency is the fitted concentration of half-maximal effect
In short: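 Cells were plated at 1000 per well and incubated 5 hr at 37°C, then compound was added for 16 hr. Caspase-Glo 3/7 reagent followed for 20 min at room temperature before luminescence was read.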

[12] = target: Cytochrome P450 3A4 (Homo sapiens) (UniProt P08684); assay: qHTS Assay for Inhibitors and Substrates of Cytochrome P450 3A4 (AID 884); note: nearly all actives have a fitted effect of over 50% in size; note: potency is the fitted concentration of half-maximal effect; for activity change, negative = inhibition: % is set by controls: 0 for no effect and ±100 for the full control effect
Chain of UniProt P08684 (P08684 whole entry, looked up): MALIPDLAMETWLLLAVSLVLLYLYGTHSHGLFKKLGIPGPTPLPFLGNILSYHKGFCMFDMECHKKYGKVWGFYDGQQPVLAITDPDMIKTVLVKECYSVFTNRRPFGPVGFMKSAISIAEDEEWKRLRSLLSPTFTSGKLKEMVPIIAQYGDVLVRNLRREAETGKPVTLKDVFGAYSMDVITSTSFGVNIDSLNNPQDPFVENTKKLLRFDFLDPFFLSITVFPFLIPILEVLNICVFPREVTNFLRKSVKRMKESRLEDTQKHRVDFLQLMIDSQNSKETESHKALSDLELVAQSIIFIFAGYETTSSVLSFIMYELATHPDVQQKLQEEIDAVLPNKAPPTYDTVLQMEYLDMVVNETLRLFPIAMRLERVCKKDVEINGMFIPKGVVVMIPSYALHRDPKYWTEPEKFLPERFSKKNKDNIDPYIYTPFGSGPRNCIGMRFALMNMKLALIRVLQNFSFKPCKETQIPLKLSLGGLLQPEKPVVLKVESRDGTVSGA
In short: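 Luminescent readout of luciferin produced by CYP3A4 (20 nM) dealkylation of Luciferin-PPXE, 25 uM (its KM). NADPH-driven reaction ran 60 min at RT after 10 min compound preincubation; data scaled to 57 uM ketoconazole as 100% inhibition.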

[13] = qHTS Assay for Identification of Small Molecule Antagonists for NFkB Signaling Pathway (AID 895; active = well fitted inhibition curve with a large enough effect in the signal ratio, with a control signal flat, not every such curve was filed as active; inconclusive = small, poorly fitted or top-dose-only effect, or effect the other way, or a change in a side signal; the % refers to the signal ratio; note: potency is the fitted concentration of half-maximal effect; for activity change, negative = inhibition: % is set by controls: 0 for no effect and ±100 for the full control effect); details: NFkB beta-lactamase reporter cells, FRET ratio 460/530
In short: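 NFkB-bla ME-180 cervical carcinoma cells with beta-lactamase reporter under NFkB response element; compounds added, then TNF alpha at 10 pM final (EC50), 5 h at 37 C. LiveBLAzer substrate 2 h, room temperature; emission 460/530 nm at 405 nm excitation.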

[14] = target: Guanine nucleotide-binding protein G(i) subunit alpha-1 (Homo sapiens) (UniProt P63096); assay: qHTS Assay for Inhibitors of RGS12 GoLoco Motif Activity (Green Fluorophore) (AID 879); note: potency is the fitted concentration of half-maximal effect
Chain of UniProt P63096 (P63096 whole entry, looked up): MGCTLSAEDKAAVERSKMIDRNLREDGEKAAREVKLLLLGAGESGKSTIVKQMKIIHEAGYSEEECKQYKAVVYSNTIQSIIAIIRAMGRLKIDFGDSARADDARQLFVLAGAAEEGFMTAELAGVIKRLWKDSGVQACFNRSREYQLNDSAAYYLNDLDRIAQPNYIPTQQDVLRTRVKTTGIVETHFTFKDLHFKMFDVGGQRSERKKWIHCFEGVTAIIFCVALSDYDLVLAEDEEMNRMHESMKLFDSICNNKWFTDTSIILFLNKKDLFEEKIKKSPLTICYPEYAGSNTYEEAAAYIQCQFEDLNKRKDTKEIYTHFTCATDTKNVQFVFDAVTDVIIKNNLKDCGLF
In short: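 A drop in FITC polarization marked displacement of the FITC-tagged RGS12 GoLoco peptide (10 nM) from Gαi1 (50 nM). Compounds were incubated 10 min at room temperature in Tris pH 7.5 buffer containing 150 mM NaCl, 0.1 mM GDP and 0.05% NP40; unlabeled peptide titration served as control.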

[15] = target: Cytochrome P450 2C9 (Homo sapiens) (UniProt P11712); assay: qHTS Assay for Inhibitors and Substrates of Cytochrome P450 2C9 (AID 883); note: nearly all actives have a fitted effect of over 60% in size; note: potency is the fitted concentration of half-maximal effect; for activity change, negative = inhibition: % is set by controls: 0 for no effect and ±100 for the full control effect
Chain of UniProt P11712 (P11712 whole entry, looked up): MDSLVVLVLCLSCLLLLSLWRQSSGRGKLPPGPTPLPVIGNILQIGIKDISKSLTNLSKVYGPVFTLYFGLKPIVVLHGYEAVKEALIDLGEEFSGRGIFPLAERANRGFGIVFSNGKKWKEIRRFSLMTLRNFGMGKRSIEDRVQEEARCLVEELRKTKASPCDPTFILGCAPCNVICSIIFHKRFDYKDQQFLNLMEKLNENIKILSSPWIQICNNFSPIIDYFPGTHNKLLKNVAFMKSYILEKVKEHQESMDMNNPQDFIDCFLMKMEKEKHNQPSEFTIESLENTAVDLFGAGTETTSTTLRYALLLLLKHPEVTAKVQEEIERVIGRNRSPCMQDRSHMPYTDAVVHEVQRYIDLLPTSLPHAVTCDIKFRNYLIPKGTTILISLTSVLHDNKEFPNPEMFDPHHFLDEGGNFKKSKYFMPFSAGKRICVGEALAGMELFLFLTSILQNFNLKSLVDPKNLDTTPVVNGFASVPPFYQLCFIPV
In short: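 CYP2C9 deoxyluciferin hydroxylation, 37C, 60 min with NADPH regeneration; 10nM enzyme, 100uM Luciferin-H (KM). Glo detection reagent stopped reaction; luminescence normalized to sulphaphenazole (57uM) full inhibition.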

[16] = target: Cytochrome P450 3A4 (Homo sapiens) (UniProt P08684); assay: qHTS Assay for Activators of Cytochrome P450 3A4 (AID 885); details: recombinant CYP3A4, Luciferin-PPXE luminescence, 60 min; activity change, positive = activation: at 57.1 µM (top of the series); note: nearly all actives have a fitted effect of over 65% in size; note: potency is the fitted concentration of half-maximal effect
In short: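 Luminescent readout of luciferin formed from 25 uM Luciferin-PPXE (KM level) by 20 nM CYP3A4 in 200 mM KPO4, with 60 min NADPH-driven reaction at room temperature after 10 min compound exposure. Ketoconazole (57 uM) defined 100% inhibition.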

[17] = target: Cytochrome P450 2D6 (Homo sapiens) (UniProt P10635); assay: qHTS Assay for Inhibitors and Substrates of Cytochrome P450 2D6 (AID 891);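 note: luciferin methyl ether substrate demethylated by CYP2D6 with NADPH regeneration; nearly all actives have a fitted effect of over 60% in size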; note: potency is the fitted concentration of half-maximal effect; for activity change, negative = inhibition: top concentration of the series differs between compounds; % is set by controls: 0 for no effect and ±100 for the full control effect
Chain of UniProt P10635 (P10635 whole entry, looked up): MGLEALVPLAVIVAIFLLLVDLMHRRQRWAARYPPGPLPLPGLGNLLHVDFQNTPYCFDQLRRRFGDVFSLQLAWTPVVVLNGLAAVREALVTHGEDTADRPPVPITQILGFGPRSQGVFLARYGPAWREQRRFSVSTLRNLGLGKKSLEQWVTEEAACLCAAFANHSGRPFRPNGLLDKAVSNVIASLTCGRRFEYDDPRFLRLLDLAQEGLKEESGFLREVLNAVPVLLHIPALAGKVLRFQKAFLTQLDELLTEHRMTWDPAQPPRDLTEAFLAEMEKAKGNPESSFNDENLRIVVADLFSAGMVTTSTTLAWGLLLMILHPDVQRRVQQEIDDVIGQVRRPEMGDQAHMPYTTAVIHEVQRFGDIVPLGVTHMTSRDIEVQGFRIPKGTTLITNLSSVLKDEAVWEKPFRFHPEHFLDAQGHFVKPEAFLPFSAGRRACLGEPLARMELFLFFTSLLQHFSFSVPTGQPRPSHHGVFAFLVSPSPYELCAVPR
In short: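 Luminescent read-out of luciferin formed by 5 nM human CYP2D6 demethylating 30 uM Luciferin-ME EGE (Km level) over 60 min at room temperature after NADPH regeneration addition. Data normalized to full inhibition by 1.43 uM quinidine.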

[18] = target: Cytochrome P450 2C19 (Homo sapiens) (UniProt P33261); assay: qHTS Assay for Inhibitors and Substrates of Cytochrome P450 2C19 (AID 899); note: nearly all actives have a fitted effect of over 60% in size; note: potency is the fitted concentration of half-maximal effect
Chain of UniProt P33261 (P33261 whole entry, looked up): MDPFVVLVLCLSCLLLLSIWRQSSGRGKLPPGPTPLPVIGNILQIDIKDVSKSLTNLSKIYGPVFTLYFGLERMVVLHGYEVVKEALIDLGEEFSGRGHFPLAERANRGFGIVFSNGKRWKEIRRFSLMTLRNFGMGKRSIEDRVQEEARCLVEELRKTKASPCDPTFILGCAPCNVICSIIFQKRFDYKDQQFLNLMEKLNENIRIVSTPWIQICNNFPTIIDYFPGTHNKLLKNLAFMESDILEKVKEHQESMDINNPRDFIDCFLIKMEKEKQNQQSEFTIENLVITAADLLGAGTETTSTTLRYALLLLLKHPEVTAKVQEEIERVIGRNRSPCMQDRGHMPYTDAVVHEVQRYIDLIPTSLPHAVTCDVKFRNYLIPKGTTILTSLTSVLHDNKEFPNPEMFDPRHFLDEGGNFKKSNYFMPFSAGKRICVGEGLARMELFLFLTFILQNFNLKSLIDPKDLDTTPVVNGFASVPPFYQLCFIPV
In short: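 In 50mM KPO4, the reaction held 5nM enzyme and KM-level (10uM) Luciferin-H EGE; it ran 60 min at 37C after NADPH regeneration and a 10 min compound preincubation. Luminescence values were scaled to 57uM ketoconazole as complete inhibition.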

[19] = activity change, negative = inhibition: at 38.3 µM (top of the series)
Tags give direction and shape of the fitted curve or compound fluorescence and quenching.

C[C@]12C/C(=C/O)C(=O)C[C@@H]1CC[C@@H]1[C@@H]2CC[C@@]2(C)[C@H]1CC[C@]2(C)O
Potency [1]: inconclusive: 79.4 µM [rising, single point] | Potency [2]: inactive | caspase-3 activation [3]: inconclusive: 66.9% | caspase-3 activation [4]: inconclusive: 57.4% | caspase-3 activation [5]: inconclusive: 55.6% | caspase-3 activation [6]: inconclusive: 92.7%

CCCCCCCCCCCC[N+](C)(C)CCOc1ccccc1
Potency [1]: active: 39.8 µM | caspase-3 activation [7]: inconclusive: 50.1% | Potency [8]: inconclusive: 31.6 µM [rising, single point] | Potency [9]: inconclusive: 31.6 µM [rising, single point] | caspase-3 activation [10]: inconclusive: 75.6% | caspase-3 activation [3]: inconclusive: 134% | Potency [11]: inconclusive: 39.8 µM [rising, single point]

CN1C[C@H](C(=O)N[C@]2(C)O[C@@]3(O)[C@@H]4CCCN4C(=O)[C@H](Cc4ccccc4)N3C2=O)C=C2c3cccc4[nH]cc(c34)C[C@H]21
caspase-3 activation [7]: inconclusive: 46.5%

CCCC(C)(COC(N)=O)COC(=O)NC(C)C (centres undefined)
Potency [10]: inactive

CC(=O)[O][Hg][c]1ccccc1
Potency [7]: inconclusive: 0.1 µM [rising, full curve, poor fit]

C[C@]12CCC(=O)C=C1CC[C@@H]1[C@@H]2CC[C@]2(C)C(=O)CC[C@@H]12
caspase-3 activation [4]: inconclusive: 68.2%

Nc1ccc(Cl)cc1N
Potency [1]: inconclusive: 31.6 µM [rising, single point] | caspase-3 activation [7]: inconclusive: 22.3% | caspase-3 activation [4]: inactive: 4.65%

CC[C@@]1(O)C(=O)OCc2c1cc1n(c2=O)Cc2cc3ccccc3nc2-1
Potency [12]: active: 6.31 µM and inactive | Potency [13, 19]: inconclusive: 4.47 µM [inhibitor, full curve]

Cc1ncc(CNC(=O)N(CCCl)N=O)c(N)n1
Potency [14]: inactive | Potency [13, 19]: inconclusive: 0.0398 µM [inhibitor, full curve, poor fit]

CC(C)c1cccc(C(C)C)c1O
Potency [13, 19]: inactive

O=c1[nH]oc2c1CCNC2
Potency [15]: inactive | Potency [13, 19]: inactive

O=c1[nH]c2ccccc2n1C1CCN(CCCC(c2ccc(F)cc2)c2ccc(F)cc2)CC1
Potency [15]: inactive | Potency [13, 19]: inconclusive: 28.2 µM [cytotoxic, side channel, single point]

Clc1ccc(CO/N=C(\Cn2ccnc2)c2ccc(Cl)cc2Cl)c(Cl)c1
Potency [16]: inactive

CC(C)NC(C)C
caspase-3 activation [6]: inactive: -15%

Cc1cccc(C)c1NC1=NCCCS1
Potency [17]: inconclusive: 39.8 µM and inconclusive: 10 µM

O=c1cccc2n1CC1CNC[C@H]2C1
Potency [15]: inactive | Potency [18]: inactive

CCCCCl
Potency [12]: inactive

C=CCN1CCC2(C)c3cc(O)ccc3C[C@H]1[C@H]2C
Potency [16]: inconclusive: 3.98 µM [activator, partial curve] | activity change, negative = inhibition [13, 19]: inconclusive: -33.8% | activity change, negative = inhibition ([13]; at 38.3 µM (top of the series)): inactive: -5.25%

O=C(O)CCCOc1ccc(Cl)cc1Cl
Potency [12]: inactive

S=C(NC1CCCCC1)N1CCC(c2cnc[nH]2)CC1
Potency [13, 19]: inconclusive: 0.316 µM [inhibitor, partial curve]

CCCCC(CC)COC(=O)c1ccccc1C(=O)OCC(CC)CCCC (centres undefined)
caspase-3 activation [6]: inactive: 11.2%

NCC(O)c1ccc(O)cc1 (centres undefined)
Potency [12]: inactive

CN1C[C@H](CNC(=O)OCc2ccccc2)C[C@@H]2c3cccc4c3c(cn4C)C[C@H]21
Potency [14]: inconclusive: 25.1 µM [inhibitor, single point] | Potency [13, 19]: inactive

Oc1cc(Cl)c(Cl)cc1Cl
Potency [12]: inactive

CCCN1CCC[C@@H]2Cc3[nH]ncc3C[C@H]21
Potency [12]: inactive | activity change, positive = activation [16]: inconclusive: 31.7% [activator] | activity change, negative = inhibition [13, 19]: inconclusive: 136% | activity change, negative = inhibition ([13]; at 38.3 µM (top of the series)): inactive: 5.62%

CNCC(O)c1ccc(O)cc1 (centres undefined)
Potency [14]: inactive | activity change, negative = inhibition [13, 19]: inconclusive: -25.7%

NC(=O)CS(=O)C(c1ccccc1)c1ccccc1 (centres undefined)
Potency [12]: inactive

CCCCCCCCC(=O)NCc1ccc(O)c(OC)c1
Potency [15]: active: 3.16 µM | Potency [13, 19]: inactive | Potency [18]: inconclusive: 7.94 µM [inhibitor, full curve]

Cc1ncsc1CCCl
Potency [15]: inconclusive: 2.51 µM [inhibitor, partial curve, poor fit]

COc1c2c(cc3c1OCO3)CCN(C)C2
Potency [17]: active: 3.98 µM

COc1ccc(C(=O)N2CCCC2=O)cc1
activity change, negative = inhibition [13, 19]: inconclusive: -12.2%

O=c1c(O)c(-c2ccc(O)c(O)c2)oc2cc(O)cc(O)c12
Potency [13, 19]: active: 5.62 µM

CN(N=O)c1cc(O)ccc1O
Potency [14]: inconclusive: 31.6 µM [inhibitor, single point] | Potency [13, 19]: inconclusive: 0.0071 µM [activator, full curve, poor fit]

CN(N=O)c1ccc(O)c(O)c1
Potency [14]: inconclusive: 15.8 µM [inhibitor, partial curve] | Potency [17]: inactive | Potency [13, 19]: inconclusive: 1.12 µM [inhibitor, single point]
